From the RNAGym collection of RNA variant scans (doi:10.7554/elife.90254)
Read counts are not given, so values of variants with three or more changes are uncertain.

B1: LINE1-mini (parent)
chain: GGCAGAGCUCAACACAGCGUGGCAAAGUGGCUGUGGCUAGACUGCC

Variants of: B1
Assay: self-cleavage, relative activity (ratio to wild type); higher = more cleavage; in vitro, sequencing; the parent is a self-cleaving ribozyme

Question: For GGCAGAGCUCAACACAGCGUGGCAAAGAGUAUGUGGCUAGACUGCU [U28A G30U C31A C46U], which self-cleavage is on record?
Answer: 0.45

Question: With GGCAGAGCUCAACACAGCGUGGCAAAUUCGUUGUGGCUCGACUGCC [G27U G29C C31U A39C] as the variant, how does the self-cleavage read?
Answer: 0.03

Question: For GGCAGAGCUCAACACAGCGUGGCAAAUUGGCUGUGCCUUGACAGCC [G27U G36C A39U U43A], which self-cleavage is on record?
Answer: 0.02

Question: With GGCAGAGCUCAACACAGCGUGGCAAAGAGGCUGUGGCUUGACUGAC [U28A A39U C45A] as the variant, how does the self-cleavage read?
Answer: 0.15

Question: With GGCAGAGCUCAACACAGCGUGGCAAACAGGCUGUCGCUAGACUGCC [G27C U28A G35C] as the variant, how does the self-cleavage read?
Answer: 0.02

Question: For GGCAGAGCUCAACACAGCGUGGCAAAGAGGCUUUGCCUAGACUGCC [U28A G33U G36C], which self-cleavage is on record?
Answer: 0.05

Question: With GGCAGAGCUCAACACAGCGUGGCAAAGAGGCUGUGGCUAGCAUGCC [U28A A41C C42A] as the variant, how does the self-cleavage read?
Answer: 0.01

Question: Which self-cleavage does the source give for GGCAGAGCUCAACACAGCGUGGCAAAGAGGCUGUGGCUAGACUUCG [U28A G44U C46G] here?
Answer: 0.1

Question: For GGCAGAGCUCAACACAGCGUGGCAAAUUGUCUGUGGCUAAACUGCC [G27U G30U G40A], which self-cleavage is on record?
Answer: 0.56

Question: With GGCAGAGCUCAACACAGCGUGGCAAAGAGGAUGUGGCUAGACUACC [U28A C31A G44A] as the variant, how does the self-cleavage read?
Answer: 0.17

Question: For GGCAGAGCUCAACACAGCGUGGCAAACUGGCUGGGGCGAGACUGCC [G27C U34G U38G], which self-cleavage is on record?
Answer: 0

Question: With GGCAGAGCUCAACACAGCGUGGCAAAGAGGCUGUGGCGAGACUGCA [U28A U38G C46A] as the variant, how does the self-cleavage read?
Answer: 0.06

Question: For GGCAGAGCUCAACACAGCGUGGCAAAUUGGCUGCAGCUAGACUGCA [G27U U34C G35A C46A], which self-cleavage is on record?
Answer: 0.15

Question: With GGCAGAGCUCAACACAGCGUGGCAAAUUGGGUGUGACUCGACUGCC [G27U C31G G36A A39C] as the variant, how does the self-cleavage read?
Answer: 0.12

Question: Which self-cleavage does the source give for GGCAGAGCUCAACACAGCGUGGCAAAGACGUUGUGGCUAGACUGUC [U28A G29C C31U C45U] here?
Answer: 0.44

Question: For GGCAGAGCUCAACACAGCGUGGCAAAUUGGCUUUGGAUAGACUGCC [G27U G33U C37A], which self-cleavage is on record?
Answer: 0.04

Question: With GGCAGAGCUCAACACAGCGUGGCAAAGAGGCUGUGGCUAGAAUGCA [U28A C42A C46A] as the variant, how does the self-cleavage read?
Answer: 0.07

Question: Which self-cleavage does the source give for GGCAGAGCUCAACACAGCGUGGCAAAGAGGCUGUUGCUGGACAGAC [U28A G35U A39G U43A C45A] here?
Answer: 0.1

Question: Which self-cleavage does the source give for GGCAGAGCUCAACACAGCGUGGCAAAGAGACUGUGGCUUGACUGCC [U28A G30A A39U] here?
Answer: 0.58

Question: For GGCAGAGCUCAACACAGCGUGGCAAAGAGUCAGUGGCUAGACUGCC [U28A G30U U32A], which self-cleavage is on record?
Answer: 0.15

Question: With GGCAGAGCUCAACACAGCGUGGCAAAGAGCCUGUGGCUAGACCGCC [U28A G30C U43C] as the variant, how does the self-cleavage read?
Answer: 0.02

Question: Which self-cleavage does the source give for GGCAGAGCUCAACACAGCGUGGCAAAUUGGCUGUGCUCAGACAUCC [G27U G36C C37U U38C U43A G44U] here?
Answer: 0.01

Question: For GGCAGAGCUCAACACAGCGUGGCAAACUGGCGGUGGCUAGAAUGCC [G27C U32G C42A], which self-cleavage is on record?
Answer: 0.02

Question: With GGCAGAGCUCAACACAGCGUGGCAAAUGGGCUGUUGGUAAACUGCC [G27U U28G G35U C37G G40A] as the variant, how does the self-cleavage read?
Answer: 0.01

Question: For GGCAGAGCUCAACACAGCGUGGCAAAUUGGCGGUGGCUAGACAGCC [G27U U32G U43A], which self-cleavage is on record?
Answer: 0.03

Question: For GGCAGAGCUCAACACAGCGUGGCAAAUUGGCUGUGGUUAGACUGGC [G27U C37U C45G], which self-cleavage is on record?
Answer: 0.03

Question: Which self-cleavage does the source give for GGCAGAGCUCAACACAGCGUGGCAAAUUGGCUGUGGUUAGACUGUC [G27U C37U C45U] here?
Answer: 0.17

Question: For GGCAGAGCUCAACACAGCGUGGCAAAGAGGAUGUGGCGAGACUGCC [U28A C31A U38G], which self-cleavage is on record?
Answer: 0.03

Question: Which self-cleavage does the source give for GGCAGAGCUCAACACAGCGUGGCAAAGAUGCUGUAGUUAGACUGCC [U28A G29U G35A C37U] here?
Answer: 0.02

Question: For GGCAGAGCUCAACACAGCGUGGCAAAGCGGGUGUGACUAGACUGCC [U28C C31G G36A], which self-cleavage is on record?
Answer: 0.05

Question: With GGCAGAGCUCAACACAGCGUGGCAAAGAGGCUGUGCCUAGAAUGCC [U28A G36C C42A] as the variant, how does the self-cleavage read?
Answer: 0.04

Question: For GGCAGAGCUCAACACAGCGUGGCAAAGAGACUGUCGCUAGACUGCC [U28A G30A G35C], which self-cleavage is on record?
Answer: 0.01

Question: For GGCAGAGCUCAACACAGCGUGGCAAAUUGGCGGUGGCUAGCCUGGC [G27U U32G A41C C45G], which self-cleavage is on record?
Answer: 0.1

Question: For GGCAGAGCUCAACACAGCGUGGCAAAGAGGCUGCGACUAGACUGCC [U28A U34C G36A], which self-cleavage is on record?
Answer: 0.03

Question: For GGCAGAGCUCAACACAGCGUGGCAAAGAGGCUGUUGCUAGACUGUU [U28A G35U C45U C46U], which self-cleavage is on record?
Answer: 0.19

Question: With GGCAGAGCUCAACACAGCGUGGCAAAGAGGCUGUGGUUAGACUGAC [U28A C37U C45A] as the variant, how does the self-cleavage read?
Answer: 0.03

Question: Which self-cleavage does the source give for GGCAGAGCUCAACACAGCGUGGCAAACAGGCUAUGGCUAGACUGCC [G27C U28A G33A] here?
Answer: 0.21

Question: For GGCAGAGCUCAACACAGCGUGGCAAAUUGGCUGUGUCUAGACUUCC [G27U G36U G44U], which self-cleavage is on record?
Answer: 0.46

Question: For GGCAGAGCUCAACACAGCGUGGCAAAUUGGCUGUGGAUCGAAUACC [G27U C37A A39C C42A G44A], which self-cleavage is on record?
Answer: 0.02

Question: For GGCAGAGCUCAACACAGCGUGGCAAAUUGCCUGUGGCUAGCCUGCC [G27U G30C A41C], which self-cleavage is on record?
Answer: 0.17

Question: Which self-cleavage does the source give for GGCAGAGCUCAACACAGCGUGGCAAAGAGGCUGUUGAUAGCCUGCC [U28A G35U C37A A41C] here?
Answer: 0.02

Question: For GGCAGAGCUCAACACAGCGUGGCAAAGAGGCUGUGGCUAGAGUGCU [U28A C42G C46U], which self-cleavage is on record?
Answer: 0.02

Question: Which self-cleavage does the source give for GGCAGAGCUCAACACAGCGUGGCAAAUGGGCUGUGGCCAGACUACC [G27U U28G U38C G44A] here?
Answer: 0.02

Question: With GGCAGAGCUCAACACAGCGUGGCAAAUUGGCUGUGGCUAGCCUGAC [G27U A41C C45A] as the variant, how does the self-cleavage read?
Answer: 0.07

Question: For GGCAGAGCUCAACACAGCGUGGCAAAUUGCCUGUGGCUAUACUGCC [G27U G30C G40U], which self-cleavage is on record?
Answer: 2.38

Question: Which self-cleavage does the source give for GGCAGAGCUCAACACAGCGUGGCAAAGAGGUUGUGGACAGACUGCC [U28A C31U C37A U38C] here?
Answer: 0.02

Question: With GGCAGAGCUCAACACAGCGUGGCAAAGAGGCUAUGGCUAGCCUGCC [U28A G33A A41C] as the variant, how does the self-cleavage read?
Answer: 0

Question: For GGCAGAGCUCAACACAGCGUGGCAAAUUUGCUGUAGCUAGGCUGCC [G27U G29U G35A A41G], which self-cleavage is on record?
Answer: 0.04

Question: For GGCAGAGCUCAACACAGCGUGGCAAAUUGUCUGUGGCAAGACUGCC [G27U G30U U38A], which self-cleavage is on record?
Answer: 0.77

Question: With GGCAGAGCUCAACACAGCGUGGCAAAUUGGCUGUGGGUAGACUACC [G27U C37G G44A] as the variant, how does the self-cleavage read?
Answer: 0.39

Question: For GGCAGAGCUCAACACAGCGUGGCAAAUUGGCUCUGGCUAGACUGCG [G27U G33C C46G], which self-cleavage is on record?
Answer: 0.05

Question: For GGCAGAGCUCAACACAGCGUGGCAAAUUGGCGGUCGCUAGACUGCC [G27U U32G G35C], which self-cleavage is on record?
Answer: 0.03

Question: Which self-cleavage does the source give for GGCAGAGCUCAACACAGCGUGGCAAAUUGGUUGUGGUUACACUGCC [G27U C31U C37U G40C] here?
Answer: 0.07

Question: Which self-cleavage does the source give for GGCAGAGCUCAACACAGCGUGGCAAAGCGGGUGGGGCUAGACUGAC [U28C C31G U34G C45A] here?
Answer: 0.04

Question: For GGCAGAGCUCAACACAGCGUGGCAAACUGGCCGUGGCUAGACUGCA [G27C U32C C46A], which self-cleavage is on record?
Answer: 0.18

Question: With GGCAGAGCUCAACACAGCGUGGCAAAUUGGCUUUGGAUAGUCUGCC [G27U G33U C37A A41U] as the variant, how does the self-cleavage read?
Answer: 0.04
